In publication PMC12136788 one finds binding signal data, which are given here for 22 molecules.

This is one part of the list.

To fix the notation:
T1: UNK ZnF1-3 (human, UniProt Q9C0B0 31-174)
T1 sequence: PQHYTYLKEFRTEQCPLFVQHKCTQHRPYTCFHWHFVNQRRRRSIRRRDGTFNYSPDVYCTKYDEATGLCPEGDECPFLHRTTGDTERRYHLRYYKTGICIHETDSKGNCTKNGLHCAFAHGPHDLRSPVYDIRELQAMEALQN

B1: chr19:36949789:36949790:+_ENSMUSG00000024811_ENSMUST00000025729|mus_hu|FALSE|FALSE (ssRNA)
RNA: GGGAGUUCUACAGUCCGACGAUCAUGUAAAGGAAUAAGUCCUCCUUUGUCUUGGGCAUUCACAUCAGCUCCGUGUUGUAACAAAUACUCUGCAACUUCUAAAUUAUUAUAACCAGCUGCUAAAUGUAAAGGUGUUGAAUGUCUCAACAGAGGAUUGAGCAUCA
B2: chr1:201932794:201932795:+_ENSG00000134375_ENST00000367287|hu_mus|FALSE|FALSE (ssRNA)
RNA: GGGAGUUCUACAGUCCGACGAUCAAGGCACCGCUAGUGAUGGAGUUCCAGGGGUCUUCUUUGCCUCGUAUUUGAACCAUACUGCAGUCAAUCGUGGAAAACAGUCCUCCCCAAACUGCAAAGCUACCUCCCAACUGUGGAGCCCAACAGAGGAUUGAGCAUCA
B3: chr6:38652254:38652255:-_ENSG00000124767_ENST00000373365|hu_hu|hu_hu_hu_mus_False|58_108 (ssRNA)
RNA: GGGAGUUCUACAGUCCGACGAUCCGAAAACUUCAUAGCAGGGAAGUCAAGCUUCUGCAGGAGGGUCAGUCCAAGAACUCUAGUAUAAAAAUCCAGGGACUUCUUAGGAUCCUUAAUUCUUAGCAUCGUUUGCUGCAGUAGAAACAACAGAGGAUUGAGCAUCA
B4: chr4:136892031:136892032:-_ENSMUSG00000006699_ENSMUST00000030417|mus_hu|FALSE|FALSE (ssRNA)
RNA: GGGAGUUCUACAGUCCGACGAUCCACACUUAAUUGUCUGCAUUGCUGAAAUAGUUUUGUAUCCACUUUAAAUAUUUCAAAUCUGAUGAUGACCUCAGCUUCUCCACCGGGGCGUUGGCAGCACUGCGCGGGGUCUCCUCGGCUCAACAGAGGAUUGAGCAUCA
B5: chr7:7679991:7679992:-_ENSG00000106399_ENST00000396682|hu_hu|hu_hu_hu_mus_False|1_38 (ssRNA)
RNA: GGGAGUUCUACAGUCCGACGAUCUGGGAUGAAUCUUUUCCAGCUUCCCCACGAAGCACACGGGCCGGUCGAUAUACUGUGGUAACAUGCUGGCGUUGAUGCGCGACUUGGGGAGCUGCAUUAUGUCCUCCAUGAUUAUGGUCCCAACAGAGGAUUGAGCAUCA
B6: chr11:20626769:20626770:-_ENSMUSG00000049659_ENSMUST00000146722|mus_hu|FALSE|FALSE (ssRNA)
RNA: GGGAGUUCUACAGUCCGACGAUCAACACAAACCUGAUCCUCUCCAUCAGUGUCUCCUUUGUUAUCCAAGCUUCUACCCAAAGCCACUUCUUUUACAGAAUUCAGUUCAUUGACUCUAUUAAUUUUAUUGUUUUCCCGAAUGGUCAACAGAGGAUUGAGCAUCA
B7: chr2:49626764:49626765:+_ENSMUSG00000026764_ENSMUST00000028102|mus_mus|motif|central (ssRNA)
RNA: GGGAGUUCUACAGUCCGACGAUCCAAGCACGUAUCUGUGCACACAAAUUCUACACAGCGCAAACACCUGAAUCUGGUGUACGGCAGACGGCUGGGCAAGCAAGUGUAAAAAGAAACGGAAACUGUAUAGGAGGGGACAGAAAGCAACAGAGGAUUGAGCAUCA
B8: chr3:196311160:196311161:+_ENSG00000174013_ENST00000440469|hu_mus|FALSE|FALSE (ssRNA)
RNA: GGGAGUUCUACAGUCCGACGAUCACUCUUCUUCUUUCCAGAAAGUCACUGUCAUCCAUCCAGAGGUUUUCCAAGAUAAACCAAAGUCACUUCUGUGUUGCCAUAUACUGCAGAGACAGCUGGGUAUAAGCAGGCUUUUGGAAGCAACAGAGGAUUGAGCAUCA
B9: chr17:49118984:49118985:-_ENSG00000008294_ENST00000510283|hu_hu|motif|central (ssRNA)
RNA: GGGAGUUCUACAGUCCGACGAUCUCCUUUCUGAGCAUCAGGUGUAAGCAAUCCAUCUCCAGCAGGUAAUGGGAAAAUUCCGGAUGAUAUAGGGCGUUCUUUUCUGAGUAUCCUUGGUAGGUUCUGCGUCAGAGCUGGCACACCCAACAGAGGAUUGAGCAUCA
B10: chr17:73267850:73267851:+_ENSMUSG00000024063_ENSMUST00000024857|mus_hu|FALSE|FALSE (ssRNA)
RNA: GGGAGUUCUACAGUCCGACGAUCGGGAAAUAUAUAGACAUGAAGUCCUAGGGCAGGCUGACACACGCCCCUGUGAUUUAAAAACGGUCCCUGCGUCCCGAGUGAGGAUGACACGGGCGCAGACGGGCACGGCAGGCGGCCGAGCAACAGAGGAUUGAGCAUCA
B11: 131922701_131927820_1994_CDS_ENSMUSG00000029673_ENSMUST00000160071|mouse|control|control (ssRNA)
RNA: GGGAGUUCUACAGUCCGACGAUCGUUACUGUGAUGAGGUGGUGGCCCAAAAGGGGUCCCAGUAGGAUGUGCAGCACCAGCGGCAGAGAAUAAAGUGGAAGGUCGUGCCAGAUCGUGGGGGUGAUGGAUGGCUCCGAAGAGACUCAACAGAGGAUUGAGCAUCA
B12: chr1:150923288:150923289:+_ENSG00000143379_ENST00000271640|hu_mus|FALSE|FALSE (ssRNA)
RNA: GGGAGUUCUACAGUCCGACGAUCCAAACAGAACAUCUCCAGGAACAGAAAGUCACAGCCAGUCUCAAAAAGGUAGCGCUCUAUCUCCUGCAUCGUCCGAAGGCAGAGACCACAGGGUGUCUUAUAGAUUACAUGAAAGCCCAUCAACAGAGGAUUGAGCAUCA
B13: chr1:25124269:25124270:+_ENSG00000169504_ENST00000374379|hu_hu|FALSE|FALSE (ssRNA)
RNA: GGGAGUUCUACAGUCCGACGAUCUACAACUCCUUUGAGCCAAAGAAUCAUGAAGAGCCUCUGGGAAAAGGGGCAGUUUCCUAUGCUUUCACCAUCACUGCCAGCCUUGACGAAGAGCUCGAUGAGGGGCUCUUUGUCCUCCUCCAACAGAGGAUUGAGCAUCA
B14: 191300769_191300889_209_3pUTR_ENSG00000151690_ENST00000281416|human|control|control (ssRNA)
RNA: GGGAGUUCUACAGUCCGACGAUCUCUGUGGAGGAAGGUGUUUCAUUCGAAGGUGGUUCUGGUUCCCUGGAAAUACCAUUAAAGGGAUCUGCAAGCACAUACUUUCUCUUCUGUUCCUCUUCAUCAUCCGUUAAGAUAGCAACUCAACAGAGGAUUGAGCAUCA
B15: chr16:94651144:94651145:+_ENSMUSG00000040785_ENSMUST00000117648|mus_hu|mus_mus_mus_hu_True|58_58 (ssRNA)
RNA: GGGAGUUCUACAGUCCGACGAUCAUUUUCUUGAAUCAAGUGGCGAAUAACAUAGUCCACUGCUUCAUUUAGAAAAUUUUUGCUAGAAAAACAGGUUGUAUAGUCUUCUGUGCUCAAAACUUUCCAAGAAAGCAAUUCUUUGAGCAACAGAGGAUUGAGCAUCA
B16: chr3:45748292:45748293:+_ENSG00000211456_ENST00000389061|hu_mus|FALSE|FALSE (ssRNA)
RNA: GGGAGUUCUACAGUCCGACGAUCGGCUCUCCAGACCGCAUGAUUAAAACAUUCACCUACUUUCAUCUUUUUGGUGAUGACAACAAGAUAAUUACCUGCCACCAGAUGGAUUGUGCCCAGUAUCCCAAAUAUUGGUCUUGUAACCAACAGAGGAUUGAGCAUCA
B17: 36449382_36449502_1153_CDS_ENSG00000112078_ENST00000373731|human|control|control (ssRNA)
RNA: GGGAGUUCUACAGUCCGACGAUCGUCUUCAUCCCAGUCCACAGAAUCCUCAUCCGUCAGCACAACAAUGUGGCACUCUCGUUCUCCUUUCUUGGCACAGCCCACCAUGAUGGGCAAGAUGAGCUCUUCGAGGUAGUGAUCAAACAACAGAGGAUUGAGCAUCA
B18: chr3:148802587:148802588:-_ENSG00000071794_ENST00000310053|hu_mus|hu_hu_hu_mus_False|68_108 (ssRNA)
RNA: GGGAGUUCUACAGUCCGACGAUCUCCAACCACAUGACCUCUCAUAGUUCCAAAUAAAACCAAAUCUACUUCUUCAUCACUCGUUAGGAAGUCAUCUGGAGGAAUAAUGUCUUGGAAUUCAAAAUGUGGCAAGAAAGUUGAGUACAACAGAGGAUUGAGCAUCA
B19: chr3:98518469:98518470:-_ENSG00000057019_ENST00000326840|hu_mus|FALSE|FALSE (ssRNA)
RNA: GGGAGUUCUACAGUCCGACGAUCAGCGUGAGGCUGGGUCCCUGCAGUUUUGAAGGUGGAUGUGGAGGGCAGACCAACUGAGGCUGUGGGGUGCCCUGACAUGUCCAUGACGAUCGGGGUUGCGUACUCAGGCCCCGUUACGGGCAACAGAGGAUUGAGCAUCA
B20: chr3:15292738:15292739:+_ENSG00000131375_ENST00000253693|hu_hu|motif|central (ssRNA)
RNA: GGGAGUUCUACAGUCCGACGAUCAGCCAGUAACUUGAGAUUUCUCCAUCACUGAAGUUGUGUGAUCUUGAUGGGGAUAAUACGGUUAAAGUCCAAGAAAAAAGGUCCUUCUUGUUUAGGCAAAAAGGUACUAGGAAUGAUAUUCAACAGAGGAUUGAGCAUCA
B21: chr1:112309342:112309343:+_ENSG00000064703_ENST00000369702|hu_hu|motif|central (ssRNA)
RNA: GGGAGUUCUACAGUCCGACGAUCUCUCCAGUACUCCUCAUAAUCCUGAUAGGUAUCAGAAAAACUCAGACGUAUUUCCCGGUGACAGUCAUACCAAUCAUCUUCCUGGGCUUCAGUCUGCAAUCUGAAGGAAGACCGCCUGGGCAACAGAGGAUUGAGCAUCA
B22: 38431194_38431314_596_CDS_ENSMUSG00000037458_ENSMUST00000065308|mouse|control|control (ssRNA)
RNA: GGGAGUUCUACAGUCCGACGAUCUCCAAGGUUUGUUCCUUCAUCCAACAGGCCAACGGAGUAGUUCGCAUCGUCAAUAAAUCCUUUCAUCUCAGCCGUAUUCCACAAAGCCGAAAGUCAUAAACCAGGAAAAACAAGAGACGGCAACAGAGGAUUGAGCAUCA

This assay addresses T1, UNK ZnF1-3. The experiment in a line: nsRBNS (natural sequence RNA bind-n-seq); RBNS binding buffer (assumed for nsRBNS): 25 mM Tris pH 7.5, 150 mM KCl, 3 mM MgCl2, 0.01% Triton X-100, 500 ug/ml BSA, 20 U/ml SUPERase-In, 4 C; UNK is unkempt and MSI1 is Musashi-1; names of the RNAs are library labels; protein concentration not given here; high values mean tight binding.
Turning to B1, the binding signal came to 0.786 enrichment R.
Take B2: the binding signal stood at 1.51 enrichment R.
B3: the binding signal turned out to be 1.07 enrichment R.
Consider B4, for which the binding signal amounted to 0.999 enrichment R.
Take B5: the binding signal was determined as 0.374 enrichment R.
In turn, B6 gave a binding signal of 1.08 enrichment R.
Under B7 stands 1.56 enrichment R; under B8, 1.13 enrichment R.
In the case of B9, the binding signal came out at 1.54 enrichment R.
As to B10, the binding signal stood at 1.24 enrichment R.
B11 displayed a binding signal of 1.73 enrichment R.
In turn, B12 gave a binding signal of 1.49 enrichment R.
Consider B13, for which the binding signal was 0.979 enrichment R.
Under B14 stands 0.863 enrichment R; under B15, 0.394 enrichment R; under B16, 1.61 enrichment R.
For the molecule B17, the binding signal stood at 0.881 enrichment R.
B18 registered a binding signal of 1.17 enrichment R.
Consider B19, for which the binding signal was 1.41 enrichment R.
In turn, B20 returned a binding signal of 0.763 enrichment R.
B21 gave a binding signal of 0.826 enrichment R.
In turn, B22 came in with a binding signal of 1.46 enrichment R.
